Experimental data reported in article PMC4336329 (PLoS ONE, 2015).
The whole screen tested about 310,000 compounds, of which about 14,000 (4.5%) showed an effect of 50% or more. Effects have a minus sign here. The list shows a part of the results. Where a SMILES comes first, the peptide text is derived from it. The star is where a group is joined. Boc = CC(C)(C)OC(=O)*

What follows are compounds tested against human ether-à-go-go-related gene (hERG) potassium channel (human, UniProt Q12809) (assay: primary screen, population patch clamp on CHO cells stably expressing hERG).
human ether-à-go-go-related gene (hERG) potassium channel, sequence (Q12809 whole entry, looked up): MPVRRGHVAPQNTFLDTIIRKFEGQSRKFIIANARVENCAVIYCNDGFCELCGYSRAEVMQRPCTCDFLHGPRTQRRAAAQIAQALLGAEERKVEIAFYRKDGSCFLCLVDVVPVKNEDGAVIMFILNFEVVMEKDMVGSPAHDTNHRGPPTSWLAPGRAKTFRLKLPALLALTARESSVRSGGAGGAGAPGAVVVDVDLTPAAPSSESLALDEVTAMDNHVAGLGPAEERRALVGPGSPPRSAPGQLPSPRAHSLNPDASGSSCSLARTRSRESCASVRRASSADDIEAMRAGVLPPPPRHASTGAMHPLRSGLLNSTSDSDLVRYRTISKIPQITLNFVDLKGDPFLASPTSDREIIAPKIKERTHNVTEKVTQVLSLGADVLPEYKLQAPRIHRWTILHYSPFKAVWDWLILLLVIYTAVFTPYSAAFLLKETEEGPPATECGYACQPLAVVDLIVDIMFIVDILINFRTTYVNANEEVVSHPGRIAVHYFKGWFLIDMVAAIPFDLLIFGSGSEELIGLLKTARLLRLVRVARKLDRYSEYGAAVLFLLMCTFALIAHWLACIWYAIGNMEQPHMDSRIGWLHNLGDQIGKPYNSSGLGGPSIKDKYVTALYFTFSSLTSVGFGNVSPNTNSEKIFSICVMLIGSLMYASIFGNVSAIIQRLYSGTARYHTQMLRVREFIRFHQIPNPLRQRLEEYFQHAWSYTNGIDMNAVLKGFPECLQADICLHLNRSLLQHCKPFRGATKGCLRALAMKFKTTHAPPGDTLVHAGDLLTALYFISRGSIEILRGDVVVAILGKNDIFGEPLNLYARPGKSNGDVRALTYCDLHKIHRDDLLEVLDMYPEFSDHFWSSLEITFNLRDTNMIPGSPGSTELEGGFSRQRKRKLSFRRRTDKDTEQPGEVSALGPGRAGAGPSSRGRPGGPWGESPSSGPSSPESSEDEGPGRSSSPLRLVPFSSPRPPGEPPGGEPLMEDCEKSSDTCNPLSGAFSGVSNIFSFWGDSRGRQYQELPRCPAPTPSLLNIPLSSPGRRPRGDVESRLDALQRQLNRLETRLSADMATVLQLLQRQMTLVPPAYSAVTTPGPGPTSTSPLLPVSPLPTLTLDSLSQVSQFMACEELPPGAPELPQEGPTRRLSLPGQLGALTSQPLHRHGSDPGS
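Also: peak tail current of the secondary pulse compared with the same well before compound.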

| Structure (SMILES) | hERG current change (%, negative = inhibition) at 10uM [%] |
| --- | --- |
| COc1nonc1NC(=O)CSc1nc2ccccc2[nH]1 | 11.1 |
| CC(C)C1NC(=S)N(Cc2ccccc2)C1=O (stereo not drawn) | 5.2 |
| CN(Cc1ccccc1)C(=O)Cc1ccccc1 | 10.5 |
| O=C(Nc1ccc(N2CCCC2)c(Cl)c1)c1ccco1 | -23.5 |
| CCOC(=O)c1c(-c2ccc(C)cc2)csc1NC(=O)c1cc2ccccc2oc1=O | 8.1 |
| CC(=O)C1=NN(c2ccccc2)C(c2ccc3c(c2)OCO3)N1c1ccc(N2CCOCC2)cc1.CC(C)O (stereo not drawn) | 13.9 |
| COc1ccc(S(=O)(=O)Nc2cccc(-n3cnnn3)c2)cc1OC | 13.3 |
| O=C1/C(=C\c2ccccn2)SC(=S)N1Nc1ncc(C(F)(F)F)cc1Cl | -1.01 |
| COc1ccc2cc(C(c3nnnn3C3CCCC3)N3CCOCC3)c3nnnn3c2c1 (stereo not drawn) | -51.7 |
| CC1(C)C(c2cccs2)=[N+]([O-])C2(CCCCC/C2=N\NC(N)=S)N1O (stereo not drawn) | 5.65 |
| CC(=O)NCCC(=O)Nc1cccc(S(=O)(=O)N(C)c2ccccc2)c1 | 9.95 |
| CCSCCOC(=O)C1=C(C)NC(=O)NC1c1cc(OC)ccc1OC (stereo not drawn) | -0.422 |
| CC(C)(C)NC(=O)CSc1nnc(-c2c[nH]c3ccccc23)o1 | 5.85 |
| Cc1sc(NC(=O)CN(Cc2ccc(F)cc2)C(=O)C(C)C)c(C(N)=O)c1C | -6.56 |
| CC(=O)C1=C(c2ccccc2)NC(=S)NC1c1cc(Cl)c(OC(C)C)c(Cl)c1 (stereo not drawn) | -17.7 |
| O=C(c1ccccc1)c1nnc(-c2ccccc2F)o1 | -32.2 |
| O=C(NCCCN1CCN(c2ccccc2F)CC1)C1CCCN(S(=O)(=O)c2cnc[nH]2)C1 (stereo not drawn) | 22.7 |
| CCCCCN1C=CC(=C2C(=O)c3ccccc3C2=O)C=C1 | -61 |
| CC(=O)C1C(=O)C=C(c2cccs2)CC1c1ccccc1 (stereo not drawn) | 0.0854 |

| Structure (SMILES) | hERG current change (%, negative = inhibition) at 10uM [%] |
| --- | --- |
| COC1=C(Nc2ccc(OC)cc2)C(=O)c2ccccc2C1=O | -22.6 |
| Cc1cc(=O)[nH]c(N2CCN(c3ccc(Cl)cc3)CC2)n1 | 2.52 |
| Cc1cc(C)nc(CCNC(=O)CC2C(=O)NCCN2Cc2ccccc2)n1 (stereo not drawn) | 16.2 |
| CCC(=O)Nc1cc(Cl)ccc1N1CCN(C(=O)CC)CC1 | -24.9 |
| CSCCC(NC(=O)OC(C)(C)C)C(=O)NC(CC(C)C)C(N)=O (stereo not drawn) (Boc-Met-Leu-NH2; configuration not given here) | 15 |
| C=CCN1C=C2C(=O)C(C)(OC(=O)CCC(=O)OC)C(=O)C=C2C=C1C1CC1 (stereo not drawn) | 8.95 |
| CCOC(=O)c1c(N)nn(C(=O)C(C)C)c1-c1ccc(OC)cc1 | 22.1 |
| Cn1c(SCC(=O)N2CCCc3ccccc32)nnc1-c1c[nH]c2ccccc12 | -10.2 |
| Fc1cccc(Cc2noc(CN3CCSCC3)n2)c1 | 29.1 |
| COc1ccccc1C(=O)Nc1ccc(S(=O)(=O)Nc2onc(C)c2C)cc1 | -3.03 |
| Cn1c(-c2nonc2N)nc2ccccc21 | 5.08 |
| CCCN1C(=O)C(NC(=O)c2ccncc2)(C(F)(F)F)C2=C1CC(C)(C)CC2=O (stereo not drawn) | 4.89 |
| CC1CCCCN1c1ncnc2ccccc12.Cl (stereo not drawn) | -7.46 |
| O=C(NCc1ccccc1F)c1ccc(S(=O)(=O)Nc2cccc(C(F)(F)F)c2)cc1 | 0.298 |
| Cc1ccc(CN(C)C(=O)c2ccccc2NC(=O)c2ccccc2)o1 | 6.66 |
| CC(=O)N1CCN(c2ccc(NCc3ccc(Br)o3)cc2)CC1 | -14.6 |
| COc1ccc(N2CCN(C3CCCN(Cc4ccccc4OCCO)C3)CC2)cc1 (stereo not drawn) | -24.1 |
| CCCCOC(=O)C1=C(C)NC2(O)c3ccccc3C(=O)C12O (stereo not drawn) | 10.1 |
| CCOc1ccc(-n2c(-c3ccco3)n[nH]c2=S)cc1 | 2.48 |

| Structure (SMILES) | hERG current change (%, negative = inhibition) at 10uM [%] |
| --- | --- |
| Cc1cc(OCCN2CCN(S(=O)(=O)c3ccccc3F)CC2)ccc1C(C)C | -15.3 |
| COc1ccc(NC(=O)CN(C)C(=O)c2cc(C3CC3)nn2-c2ccccc2)cc1 | -24.1 |
| COc1ccc(C(=O)NCCNc2nc3c(C)cccc3cc2C#N)cc1OC | 7.58 |
| O=S(=O)(CCN1CCCCC1)Oc1ccc(Cl)cc1Cl | -28.5 |
| CN(C(=O)Nc1ccccc1)C1CCS(=O)(=O)C1 (stereo not drawn) | 2.6 |
| Cc1ccc(NC(=O)/C(=C/c2ccncc2)NC(=O)c2ccccc2)cc1 | -9.82 |
| CCOC(=O)c1cnc(-n2cc(C)cn2)nc1Nc1ccccc1OC | -8.01 |
| O=C(/C=C/c1ccc(Cl)cc1Cl)NCc1ccco1 | -9.09 |
| CCCCn1c(-c2nonc2N)nc2ccccc21 | 10.9 |
| CCOC(=O)N1CCN(C(=O)CSc2ccc(-c3ccc(OC)c(OC)c3)nn2)CC1 | -14.4 |
| Cc1c(Cl)cccc1NC(=S)Nn1cnnc1 | 17.1 |
| CN1C(=O)NC(c2ccccc2)C2=C1CN(c1cccc(C(F)(F)F)c1)C2=O (stereo not drawn) | -40.9 |
| O=C(CC(c1ccccc1O)N1CCCCC1)N1CCCCC1 (stereo not drawn) | -4.19 |
| O=C(Nc1nnc(SCC(=O)N2CCCCC2)s1)c1c(F)cccc1F | 15.5 |
| CCc1noc(C)c1C(=O)Nc1ccc(F)c(F)c1F | 6.4 |
| Cc1cc(C(=O)COc2ccc(C#N)cc2)c(C)n1C1CC1 | -21.8 |
| COc1cc(OC)cc(-c2nc(N)n[nH]2)c1 | -0.678 |
| C=CCn1c(SCC(=O)Nc2sccc2C#N)nc2sc(C)c(C)c2c1=O | 13.1 |
| CCN(CC)S(=O)(=O)c1ccc(C(=O)Nc2ccc(Cc3ccncc3)cc2)cc1 | -46 |
